T1: human IL-23 (human, UniProt Q9NPF7 20-189; P29460 23-328)
T1 construct: Heterodimer of p19 and p40; in the proliferation assays CAT # HZ-1254, HumanZyme; also called hIL-23; hIL23
T1 sequence (looked up) 1: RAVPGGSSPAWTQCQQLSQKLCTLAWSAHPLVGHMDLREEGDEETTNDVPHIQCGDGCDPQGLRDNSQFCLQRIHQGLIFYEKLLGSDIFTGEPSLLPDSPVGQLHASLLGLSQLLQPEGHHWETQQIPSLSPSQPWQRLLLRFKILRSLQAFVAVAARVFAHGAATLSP
T1 sequence (looked up) 2: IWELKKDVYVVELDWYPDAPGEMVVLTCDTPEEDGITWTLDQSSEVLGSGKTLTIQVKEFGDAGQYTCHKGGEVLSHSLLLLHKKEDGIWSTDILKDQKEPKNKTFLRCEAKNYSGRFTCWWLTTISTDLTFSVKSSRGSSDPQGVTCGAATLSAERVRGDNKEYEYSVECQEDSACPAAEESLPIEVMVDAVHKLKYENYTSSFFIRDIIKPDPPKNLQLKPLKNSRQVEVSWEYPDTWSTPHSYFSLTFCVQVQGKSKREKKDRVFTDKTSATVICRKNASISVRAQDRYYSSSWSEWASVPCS

T2: human IL-12p40 (human, UniProt P29460 23-328)
T2 construct: also called hIL-12p40
T2 sequence (looked up): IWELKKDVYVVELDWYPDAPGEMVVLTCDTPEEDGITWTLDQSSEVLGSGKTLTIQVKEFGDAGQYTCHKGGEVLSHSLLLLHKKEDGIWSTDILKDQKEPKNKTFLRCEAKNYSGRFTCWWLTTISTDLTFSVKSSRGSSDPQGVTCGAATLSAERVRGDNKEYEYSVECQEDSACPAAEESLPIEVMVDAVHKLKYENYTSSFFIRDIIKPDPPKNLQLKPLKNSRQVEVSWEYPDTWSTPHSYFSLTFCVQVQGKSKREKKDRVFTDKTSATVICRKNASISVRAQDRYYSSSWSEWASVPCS


How the values were obtained:
human IL-17A [1] = molecular target: T3, human IL-17A (human, UniProt Q16552 24-155); test: competition ELISA (ECL): biotinylated hIL-17A pre-incubated with varied binder, free hIL-17A captured on coated hIL-17RA (competitor)
T3 construct: also called hIL-17A; IL-17 A/A

human IL-23 [2] = molecular target: T1, human IL-23; test: competition ECL assay: biotinylated hIL-23 pre-incubated with varied binder, free hIL-23 captured on coated soluble hIL-23R (competitor)
human IL-17A [3] = molecular target: T3, human IL-17A; test: cell-based or functional assay
human IL-23 [4] = molecular target: T1, human IL-23; test: cell-based or functional assay
human IL-12p40 = molecular target: T2, human IL-12p40; test: solution competition ELISA, 100 nM mutein, plate with biotinylated hIL-23
Method: In the following detailed experimental protocol, incubation and washing steps were performed as described above in the competition ELISA protocol. A 384-well plate suitable for fluorescence measurements (Greiner FLUOTRAC™ 600, black flat bottom, high-binding) was coated with 20 μl of Neutravidin at a concentration of 5 μg/ml in PBS over night at 4° C. After washing, the Neutravidin-coated wells were blocked with 100 μl blocking buffer (PBS-T/BSA) for 1h at room temperature.
Note that the lipocalein muteins contained a C-terminal Streptag fusion to allow binding and subsequent detection with the aid of an anti-Streptag antibody.

human IL-23 [5] = molecular target: T1, human IL-23; test: competition ELISA (fluorescence): 1.6 nM hIL-23 pre-incubated with varied mutein, free hIL-23 captured on hIL-23R-Fc (competitor)
human IL-17A [6] = molecular target: T3, human IL-17A; test: cell-based or functional assay; remark: listed apart in the source

T3 sequence (Q16552 24-155 limits assumed): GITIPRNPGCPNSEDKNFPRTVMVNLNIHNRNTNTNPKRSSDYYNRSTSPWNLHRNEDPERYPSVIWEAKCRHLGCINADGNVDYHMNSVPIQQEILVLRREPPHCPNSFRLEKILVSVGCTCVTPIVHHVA

Row | IC50 (human IL-17A [1]) | IC50 (human IL-23 [2]) | IC50, hIL-17A-induced secretion of G-CSF in U87-MG cells (human IL-17A [3]) | IC50 (human IL-23 [5]) | Binder | binding result (human IL-12p40) | also measured
1 | 0.019 nM | 0.65 nM | – | – | fusion protein SEQ ID NO: 55 (designed binder) ASDEEIQDVSGTWYLKAMTVDFWCSGIHEESVTPMTLTTLEGGNLEAKVTMDIEGFLQEFKAVLEKTDEPGKYTADGGKHVAYIIRSHVKDHYIFYSEGDCPGPVPGVWLVGRDPKNNLEALEDFEKAAGARGLSTESILIPRQSETSSPGSDGGGGSGGGGSASDEEIQDVSGTWYLKAMTVDFWCSGIHEESVTPMTLTTLEGGNLEAKVTMDIEGFLQEFKAVLEKTDEPGKYTADGGKHVAYIIRSHVKDHYIFYSEGDCPGPVPGVWLVGRDPKNNLEALEDFEKAAGARGLSTESILIPRQSETSSPGSDGGGGSGGGGSQDSTSDLIPAPPLSKVPLQQNFQDNQFHGKWYVVGEAGNLLLREDKDPRKMTATIYELKEDKSYDVTRVEFGVKTYKYQIGTFVPGSQPGEFTLGGIKSMPGMTSFLVRVVSTNYNQHAMVFFKYVYQNREYFEITLYGRTKELTSELKENFIRFSKSLGLPENHIVFPVPIDQAIDG | – | –
2 | – | – | 0.12 nM | – | bivalent fusion protein (SEQ ID NO: 40) (designed binder) ASDEEIQDVSGTWYLKAMTVDFWCSGIHEESVTPMTLTTLEGGNLEAKVTMDIEGFLQEFKAVLEKTDEPGKYTADGGKHVAYIIRSHVKDHYIFYSEGDCPGPVPGVWLVGRDPKNNLEALEDFEKAAGARGLSTESILIPRQSETSSPGSGAGGGGSGGGGSASDEEIQDVSGTWYLKAMTVDFWCSGIHEESVTPMTLTTLEGGNLEAKVTMDIEGFLQEFKAVLEKTDEPGKYTADGGKHVAYIIRSHVKDHYIFYSEGDCPGPVPGVWLVGRDPKNNLEALEDFEKAAGARGLSTESILIPRQSETSSPG | – | –
3 | 0.09 nM | 1.6 nM | 1.5 nM | – | fusion protein SEQ ID NO: 57 (designed binder) QDSTSDLIPAPPLSKVPLQQNFQDNQFHGKWYVVGEAGNLLLREDKDPRKMTATIYELKEDKSYDVTRVEFGVKTYKYQIGTFVPGSQPGEFTLGGIKSMPGMTSFLVRVVSTNYNQHAMVFFKYVYQNREYFEITLYGRTKELTSELKENFIRFSKSLGLPENHIVFPVPIDQAIDGGGGGSGGGGSASDEEIQDVSGTWYLKAMTVDFWCSGIHEESVTPMTLTTLEGGNLEAKVTMDIEGFLQEFKAVLEKTDEPGKYTADGGKHVAYIIRSHVKDHYIFYSEGDCPGPVPGVWLVGRDPKNNLEALEDFEKAAGARGLSTESILIPRQSETSSPG | – | IC50, hIL-23-induced proliferation of Ba/F3 cells expressing hIL-23R and hIL-12Rβ1 (human IL-23 [4]): 4.4 nM
4 | – | – | – | 25 nM | lipocalin mutein SEQ ID NO: 6 (designed binder, Tear lipocalin mutein specific for IL-23p19) ASDEEIQDVSGTWYLKAMTVDWQCTWDDDPSVTPMTLTTLEGGNLEAKVTMPIFGLWQEEKAVLEKTDEPGKYTADGGKHVAYIIRSHVKDHYIFYSEGACYGQPVPGVWLVGRDPKNNLEALEDFEKAAGARGLSTESILIPRQSETSSPG | no binding (tested: ligand up to 1000 nM) | –
5 | – | – | – | 11 nM | lipocalin mutein SEQ ID NO: 13 (designed binder, Tear lipocalin mutein specific for IL-23p19) ASDEEIQDVSGTWYLKAMTVDWVCAFDDDPSVTPMTLTTLEGGNLEAKVTIPTFGLYQEEKAVLEKTDEPGKYTADGGKHVAYIIRSHVKDHYIFYSEGACHGHPVPGVWLVGRDPKNNLEALEDFEKAAGARGLSTESILIPRQSETSSPG | no binding (tested: ligand up to 1000 nM) | –
6 | – | – | – | 10 nM | lipocalin mutein SEQ ID NO: 12 (designed binder, Tear lipocalin mutein specific for IL-23p19) ASDEEIQDVSGTWYLKAMTVDWQCTWADEPSVTPMTLTTLEGGNLEAKVTIPTFGLAEEEKAVLEKTDEPGKYTADGGKHVAYIIRSHVKDHYIFYSEGRCWGRPVPGVWLVGRDPKNNLEALEDFEKAAGARGLSTESILIPRQSETSSPG | no binding (tested: ligand up to 1000 nM) | –
7 | 0.08 nM | 0.8 nM | 2.9 nM | – | fusion protein SEQ ID NO: 53 (designed binder) ASDEEIQDVSGTWYLKAMTVDFWCSGIHEESVTPMTLTTLEGGNLEAKVTMDIEGFLQEFKAVLEKTDEPGKYTADGGKHVAYIIRSHVKDHYIFYSEGDCPGPVPGVWLVGRDPKNNLEALEDFEKAAGARGLSTESILIPRQSETSSPGSDGGGGSGGGGSQDSTSDLIPAPPLSKVPLQQNFQDNQFHGKWYVVGEAGNLLLREDKDPRKMTATIYELKEDKSYDVTRVEFGVKTYKYQIGTFVPGSQPGEFTLGGIKSMPGMTSFLVRVVSTNYNQHAMVFFKYVYQNREYFEITLYGRTKELTSELKENFIRFSKSLGLPENHIVFPVPIDQAIDG | – | IC50, hIL-23-induced proliferation of Ba/F3 cells expressing hIL-23R and hIL-12Rβ1 (human IL-23 [4]): 4.3 nM
8 | 0.08 nM | – | – | – | fusion protein SEQ ID NO: 16 (designed binder) QDSTSDLIPAPPLSKVPLQQNFQDNQFHGKWYVVGMAGNLMLREDKDPTKMSATIYELKEDKSYNVTWVDFRFKKCKYQIGTFVPGSQPGEFTLGGIKSMPGMTSFLVRVVSTNYNQHAMVFFKYVYQNREYFEITLYGRTKELTSELKENFIRFSKSLGLPENHIVFPVPIDQCIDGGGGSGGGGSASDEEIQDVSGTWYLKAMTVDFWCSGIHEESVTPMTLTTLEGGNLEAKVTMDIEGFLQEFKAVLEKTDEPGKYTADGGKHVAYIIRSHVKDHYIFYSEGDCPGPVPGVWLVGRDPKNNLEALEDFEKAAGARGLSTESILIPRQSETSSPG | – | EC50 [nM] AVERAGE, hIL-17A-induced secretion of G-CSF in U87-MG cells (human IL-17A [6]): 2.2 nM; EC50 [nM] Exp 1, hIL-17A-induced secretion of G-CSF in U87-MG cells (human IL-17A [6]): 2.3 nM; EC50 [nM] Exp 2, hIL-17A-induced secretion of G-CSF in U87-MG cells (human IL-17A [6]): 2.1 nM
9 | – | – | 289 nM | – | lipocalin mutein SEQ ID NO: 2 (designed binder) ASDEEIQDVSGTWYLKAMTVDFWCSGVHEESVTPMTLTTLEGGNLEAKVTMDIGGFLQEVKAVLEKTDEPGKYTADGGKHVAYIIRSHVKDHYIFYSEGDCPGLPVPGVWLVGRDPKNNLEALEDFEKAAGARGLSTESILIPRQSETSSPG | – | –
10 | 0.05 nM | – | – | – | fusion protein SEQ ID NO: 17 (designed binder) ASDEEIQDVSGTWYLKAMTVDFWCSGIHEESVTPMTLTTLEGGNLEAKVTMDIEGFLQEFKAVLEKTDEPGKYTADGGKHVAYIIRSHVKDHYIFYSEGDCPGPVPGVWLVGRDPKNNLEALEDFEKAAGARGLSTESILIPRQSETSSPGSGAGGGSGGGGSQDSTSDLIPAPPLSKVPLQQNFQDNQFHGKWYVVGMAGNLMLREDKDPTKMSATIYELKEDKSYNVTWVDFRFKKCKYQIGTFVPGSQPGEFTLGGIKSMPGMTSFLVRVVSTNYNQHAMVFFKYVYQNREYFEITLYGRTKELTSELKENFIRFSKSLGLPENHIVFPVPIDQCIDG | – | EC50 [nM] AVERAGE, hIL-17A-induced secretion of G-CSF in U87-MG cells (human IL-17A [6]): 1.7 nM; EC50 [nM] Exp 1, hIL-17A-induced secretion of G-CSF in U87-MG cells (human IL-17A [6]): 2.1 nM; EC50 [nM] Exp 2, hIL-17A-induced secretion of G-CSF in U87-MG cells (human IL-17A [6]): 1.3 nM

Reference: patent US20200148733A1 (Pieris, published 2020)
